According to patent US20020068706A1 (GPC BIOTECH, published 2002):

How the values were obtained:
cdc2/cyclin B complex = cdc2/cyclin B complex (UniProt P06493); experiment: cell-based or functional assay
CDK4/cyclin D1 complex [1] = molecular target: T1, CDK4/cyclin D1 complex (UniProt P11802 1-303; P24385); experiment: cell-based or functional assay
CDK2/cyclin A complex = CDK2/cyclin A complex (UniProt P24941); experiment: cell-based or functional assay
CDK2/cyclin E complex = CDK2/cyclin E complex (UniProt P24941); experiment: cell-based or functional assay
CDK4/cyclin D1 complex [2] = molecular target: T1, CDK4/cyclin D1 complex; experiment: inhibition constant from in vitro kinase assay (Sf9 extract, Gst-Rb substrate)
T1 sequence (P11802 whole entry, chain 1 of 2): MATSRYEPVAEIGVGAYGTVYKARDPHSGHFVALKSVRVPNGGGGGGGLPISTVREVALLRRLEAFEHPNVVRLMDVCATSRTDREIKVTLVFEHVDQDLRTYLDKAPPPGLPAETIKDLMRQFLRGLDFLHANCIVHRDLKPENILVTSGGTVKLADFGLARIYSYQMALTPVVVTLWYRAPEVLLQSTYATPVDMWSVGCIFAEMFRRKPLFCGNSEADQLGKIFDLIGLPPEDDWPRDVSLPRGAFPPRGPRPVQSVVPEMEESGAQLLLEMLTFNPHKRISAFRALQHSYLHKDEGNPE
T1 sequence (P24385 whole entry, chain 2 of 2, further chain): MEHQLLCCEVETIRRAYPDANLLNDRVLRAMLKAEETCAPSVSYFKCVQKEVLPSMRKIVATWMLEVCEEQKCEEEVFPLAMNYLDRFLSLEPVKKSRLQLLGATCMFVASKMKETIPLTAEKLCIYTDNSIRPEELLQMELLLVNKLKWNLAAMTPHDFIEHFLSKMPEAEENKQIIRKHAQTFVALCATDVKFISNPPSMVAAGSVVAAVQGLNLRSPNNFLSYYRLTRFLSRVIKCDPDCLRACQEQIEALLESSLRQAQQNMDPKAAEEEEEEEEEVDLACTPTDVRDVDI

Chain of cdc2/cyclin B complex (P06493 whole entry, one chain of several): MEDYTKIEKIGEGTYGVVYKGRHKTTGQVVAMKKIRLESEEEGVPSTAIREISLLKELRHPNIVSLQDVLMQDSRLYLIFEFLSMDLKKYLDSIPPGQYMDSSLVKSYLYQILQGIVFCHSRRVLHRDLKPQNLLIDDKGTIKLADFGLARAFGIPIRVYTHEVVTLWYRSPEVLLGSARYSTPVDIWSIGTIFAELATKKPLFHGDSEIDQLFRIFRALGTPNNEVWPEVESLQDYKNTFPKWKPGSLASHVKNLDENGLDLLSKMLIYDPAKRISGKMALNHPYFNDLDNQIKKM

IC50 of in vitro kinase assay (32P incorporation into Gst-Rb) (cdc2/cyclin B complex): 15 nM | IC50 of in vitro kinase assay (32P incorporation into Gst-Rb) (CDK4/cyclin D1 complex [1]): 25 nM | IC50 of in vitro kinase assay (32P incorporation into Gst-Rb) (CDK2/cyclin A complex): 25 nM | IC50 of in vitro kinase assay (32P incorporation into Gst-Rb) (CDK2/cyclin E complex): 30 nM | Ki (CDK4/cyclin D1 complex [2]): 23 nM
B1: p27-p16 fusion protein (other)
chain: [about 200 residues omitted]GGGGSGGGGSGGGGSEFCGRACARRLRRGESMQRAAGSSMEPSADWLATAAARGRVEEVRALLEAVALPNAPNSYGRRPIQVMMMGSARVAELLLLHGAEPNCADPATLTRPVHDAAREGFLDTLVVLHRAGARLDVRDAWGRLPVDLAEELGHRDVARYLRAAAGGTRGSNHARIDAAEGPSDIPD
notes: About 25% of the preparation was the fusion protein; also called p27-p16 chimeric protein
